# Laboratory results reported in PubChem BioAssay (NCATS).
# Inconclusive results, whose numbers are uncertain, are shown with a selection of clear calls. For some of these results: Where the call is inconclusive, the potency comes from a doubtful curve fit. Active and inactive are the calls of the source. Calls follow the shape of the dose curve; as a rule, active = well fitted curve in the direction sought with a large enough effect; inconclusive = small, poorly fitted or top-dose-only effect, or another doubt; inactive = no such curve, though single readings can be large; an effect the other way counts as inactive or inconclusive.
# Columns and labels:
# [1] = OV-KATE Cancer Cell Toxicity qHTS against the NCATS CANVASS Library (AID 1347345); also: potency is read from the fitted curve at half-maximal effect
# Summary of the method: (§1)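 Cells were seeded at 1000 per well, allowed 4 h at 37 degrees C/5% CO2, then pin-treated with an 11-point compound series. After 72 h, viability was read as CellTiter-Glo luminescence following 15min at room temperature.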
# [2] = HPAF-II Cancer Cell Toxicity qHTS against the NCATS CANVASS Library (AID 1347346); also: potency is read from the fitted curve at half-maximal effect; nearly all actives have a fitted effect of over 55% in size
# Summary of the method: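 First, HPAF-II cells are plated (1000 cells/well) and held 4 h at 37 degrees C. Next, compounds are pin-transferred as an 11-point series. After 72 h, CellTiter-Glo is added and luminescence measured.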
# [3] = UWB1.289 Cancer Cell Toxicity qHTS against the NCATS CANVASS Library (AID 1347347); also: potency is read from the fitted curve at half-maximal effect; nearly all actives have a fitted effect of over 60% in size
# Summary of the method: as §1
# [4] = OV-SAHO Cancer Cell Toxicity qHTS against the NCATS CANVASS Library (AID 1347348); conditions: OV-SAHO viability, CellTiter-Glo luminescence, 72 h; series mostly up to 38.3 µM; also: potency is read from the fitted curve at half-maximal effect; nearly all actives have a fitted effect of over 55% in size
# Summary of the method: as §1
# [5] = SW1088 Cancer Cell Toxicity qHTS against the NCATS CANVASS Library (AID 1347350); also: potency is read from the fitted curve at half-maximal effect; nearly all actives have a fitted effect of over 75% in size
# Summary of the method: as §1
# [6] = COV-362 Cancer Cell Toxicity qHTS against the NCATS CANVASS Library (AID 1347352); also: potency is read from the fitted curve at half-maximal effect
# Summary of the method: (§2)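 First, 1000 cells go into each well and rest for 4 hours. Next, an 11-point dilution range is pinned in. Plates then incubate 72 hours before CellTiter-Glo addition and luminescence reading.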
# [7] = HEK-293 Cancer Cell Toxicity qHTS against the NCATS CANVASS Library (AID 1347355); also: potency is read from the fitted curve at half-maximal effect; nearly all actives have a fitted effect of over 65% in size
# Summary of the method: as §2
# [8] = HPAF-II 12hr Apoptosis Induction qHTS against the NCATS CANVASS Library (AID 1347358); also: potency is read from the fitted curve at half-maximal effect
# Summary of the method: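 Cells plated at 500 per well are dosed with compound and incubated 12 hours at 37 degrees C. Caspase-Glo 3/7 reagent is added and, after 15 min at room temperature, luminescence proportional to caspase activity is measured.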
# [9] = test system: NAD(P)H diaphorase (Clostridium kluyveri); experiment: Diaphorse counterscreen qHTS: Assay Interference Panel against the NCATS CANVASS Library (AID 1347362)
# Summary of the method: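 Counterscreen for coupling-enzyme interference: resorufin fluorescence from resazurin/NADH turnover, read after 5 min at room temperature. Compounds were tested over an 11-point series after 15 min dark preincubation with diaphorase in PBS-Tween.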
# [10] = SDT Cancer Cell Toxicity qHTS against the NCATS CANVASS Library (AID 1347365); also: potency is read from the fitted curve at half-maximal effect; nearly all actives have a fitted effect of over 60% in size
# Summary of the method: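 Cytotoxicity is measured from cellular ATP: compounds in an 11-point concentration series are pinned onto SDT cells, incubated 72 hr at 37C, then CellTiterGlo is added and luminescence read.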
# [11] = qHTS for ATAD5 Antagonist screened against the NCATS CANVASS Library (AID 1347370); also: potency is read from the fitted curve at half-maximal effect; nearly all actives have a fitted effect of over 65% in size
# Summary of the method: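 Compounds (11-point) co-dosed with 10 µM 5-FUrd for 16 h at 37 °C onto HEK293T-ATAD5 luciferase reporter cells. Viability measured by CellTiter-Fluor fluorescence, then ATAD5 reporter signal by luminescence.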
# [12] = J3T Cancer Cell Toxicity qHTS against the NCATS CANVASS Library (AID 1347371); also: potency is read from the fitted curve at half-maximal effect
# Summary of the method: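 Luminescence from CellTiterGlo, reporting cellular ATP, serves as the viability measure after 72 hr compound treatment of J3T canine glioma cells seeded at 500 cells/well.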
# [13] = molecular target: Nuclear receptor subfamily 1 group I member 3 (Homo sapiens) (UniProt Q14994); experiment: qHTS for Constitutive Androstane Receptor (CAR) Antagonist screened against the NCATS CANVASS Library (AID 1347372); also: potency is read from the fitted curve at half-maximal effect
# Chain of UniProt Q14994 (Q14994 whole entry, looked up): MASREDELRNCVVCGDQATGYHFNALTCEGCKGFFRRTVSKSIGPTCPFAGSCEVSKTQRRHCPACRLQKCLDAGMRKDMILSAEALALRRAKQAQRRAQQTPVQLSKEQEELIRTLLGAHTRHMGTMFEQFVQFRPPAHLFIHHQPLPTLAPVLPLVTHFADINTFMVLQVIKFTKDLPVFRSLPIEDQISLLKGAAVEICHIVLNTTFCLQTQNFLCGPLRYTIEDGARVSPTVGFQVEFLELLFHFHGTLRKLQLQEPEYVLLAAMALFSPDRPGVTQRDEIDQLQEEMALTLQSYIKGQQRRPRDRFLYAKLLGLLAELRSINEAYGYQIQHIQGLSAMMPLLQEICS
# Summary of the method: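 Antagonist mode: compound added alongside 50 nM CITCO to HepG2-hCAR-CYP2B6 reporter cells, 24hr at 37C. Viability by CellTiter-Fluor fluorescence, then CAR-driven luciferase by ONE-Glo luminescence.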
# [14] = qHTS for Hypoxia signaling pathway (HIF-1) antagonists against the NCATS CANVASS Library (AID 1347374); also: nearly all actives have a fitted effect of over 60% in size; also: potency is read from the fitted curve at half-maximal effect;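 as to activity change, negative = inhibition: HRE-bla ME-180 cells stimulated with cobalt chloride to stabilize HIF-1alpha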
# Summary of the method: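 Antagonism scored as loss of CoCl2-driven (60 uM stock added) HRE beta-lactamase signal, read by CCF4 FRET at 460/530 nm. Compounds were tested in an 11-point series on ME-180 reporter cells for 17 hrs at 37C, with parallel CellTiter-Glo cytotoxicity.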
# [15] = qHTS for H2AX Agonists against the NCATS CANVASS Library (AID 1347378)
# Summary of the method: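 CHO-K1, 1000 cells/well, o/n 37C; cpd several conc, 3 hr 37C, 0.76% DMSO; lyse 30 min RT; cryptate anti-pH2AX(S139) + d2 anti-H2AX, 24 hr RT; HTRF 665/620.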
# [16] = Secretion counterscreen for inhibitors of the SERCaMP assay screened against the NCATS CANVASS Library (AID 1347390); conditions: SH-SY5Y constitutive GLuc secretion, luminescence, 20 h; activity change, negative = inhibition: at 76.6 µM (top of the series);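 also: light from luciferase secreted into medium read as a measure of general secretion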
# Summary of the method: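 SH-SY5Y-GLuc STOP cells; 4 h attach; cpds 0.001 - 77 uM (qHTS, 11 pts), 20 h 37C/5% CO2; coelenterazine in glow buffer; luminescence, 5 s exposure.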
# [17] = qHTS for activators of dead-cell proteases activity screened against the NCATS CANVASS Library (AID 1347392);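 also: luminescence from protease leaking out of membrane-damaged cells cleaving impermeant substrate; rising signal means more cytotoxicity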
# Summary of the method: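 Luminescent dead-cell protease readout (AAF-aminoluciferin, 15 min, room temperature) after 5 h compound treatment of HepG2 cells (2000/well, pre-attached 18 h). Eleven concentrations.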
# [18] = qHTS for inhibitors of Wild type Zika virus screened against the NCATS CANVASS Library (AID 1347396); also: potency is read from the fitted curve at half-maximal effect
# Summary of the method: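 Vero 766 cells, 1000/well, o/n attach; cpds pin-transferred (11-pt qHTS); WT Zika added; 72 h, 37C, 5% CO2; CellTiter Glo lumi. Uninfected + vehicle = 100% inhibition.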
# [19] = Viability qHTS for inhibitors of the SERCaMP assay screened against the NCATS CANVASS Library (AID 1347400); also: nearly all actives have a fitted effect of over 70% in size
# Summary of the method: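 Seed SH-SY5Y-GLuc SERCaMP MJH297 cells at 1000 per well, incubate 4 h, add compounds across an 11-point range, incubate 48 h at 37C, then add CellTiter-Glo and read luminescence.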
# [20] = Redox Reaction Profiling qHTS: Assay Interference Panel against the NCATS CANVASS Library (AID 1347401)
# Summary of the method: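 Redox-cycling liability assessed as DTT-driven conversion of resazurin (5 uM, with 200 uM DTT, HEPES pH 7.3) to fluorescent resorufin. Fluorescence at 525/598 nm measured initially and after 15 min dark incubation.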
# [21] = Panc-1005 Cancer Cell Toxicity qHTS against the NCATS CANVASS Library (AID 1347349); also: potency is read from the fitted curve at half-maximal effect; nearly all actives have a fitted effect of over 60% in size
# Summary of the method: as §1
# [22] = A2780 Cisplatin Sensitive Ovarian Cancer Cell Toxicity qHTS against the NCATS CANVASS Library (AID 1347353)
# Summary of the method: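 Cells are plated at 750 per well and rest for 4 hours. Compounds are added across eleven concentrations, and incubated 72 hours before ATP is quantified by luminescence.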
# [23] = KB-8-5-11 Cancer Cell Toxicity qHTS against the NCATS CANVASS Library (AID 1347364); conditions: activity change, negative = toxicity: at 46.1 µM (top of the series); also: potency is read from the fitted curve at half-maximal effect; nearly all actives have a fitted effect of over 75% in size
# Summary of the method: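 Terse: KB-8-5-11, 500 cells/well, 72 hr, 37C/5% CO2, 11-pt titration, CellTiter-Glo readout; confirmatory runs ± 1uM tariquidar in medium.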
# [24] = DH5-alpha competent E. coli microbial cell viability qHTS against the NCATS CANVASS Library (AID 1347377); conditions: viability signal change, negative = cytotoxic: at 46.1 µM (top of the series)
# Summary of the method: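 Bacteria were dispensed at 0.2 OD, then compounds were pin-transferred. Plates were incubated overnight at 37C, after which BacTiter-Glo was added and luminescence measured 20 min later.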
# [25] = qHTS for Antimalaria activity screened against the NCATS CANVASS Library (AID 1347380); also: potency is read from the fitted curve at half-maximal effect; nearly all actives have a fitted effect of over 40% in size
# Summary of the method: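 Compounds are titrated over 11 concentrations onto Dd2 parasite cultures (0.3% parasitemia, 2.5% hematocrit). Growth over 72 h at 37C in low oxygen is measured as SYBR Green DNA fluorescence after lysis.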
# [26] = qHTS for inhibitors of ER calcium dysfunction: SERCaMP assay screened against the NCATS CANVASS Library (AID 1347393); conditions: SH-SY5Y GLuc-SERCaMP (Gaussia luciferase released on ER calcium loss) secretion, thapsigargin, luminescence; activity change, negative = inhibition: at 76.6 µM (top of the series) unless noted; also: potency is read from the fitted curve at half-maximal effect; nearly all actives have a fitted effect of over 40% in size
# Summary of the method: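 Thapsigargin-induced ER calcium depletion drives GLuc-SERCaMP secretion from SH-SY5Y cells; compounds given 16 h beforehand were scored by lowered coelenterazine luminescence after 4 h challenge.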
# [27] = Vero-766 cells viability qHTS against the NCATS CANVASS Library: Counterscreen for Zika virus inhibition assay (AID 1347394); conditions: Vero 766 viability, CellTiter-Glo luminescence, 72 h; activity change, negative = cytotoxic: at 46.1 µM (top of the series)
# Summary of the method: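 Vero 766, no virus; 1000 cells/well; o/n attach; cpd 11-pt; 72 h, 37C, 5% CO2; CTG luminescence; cell-free media wells = 100% inhibition.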
# Tags tell the direction and shape of the fitted curve.
structure (smiles),measurement,setting,value
CC[C@H](O)CCCCC[C@@H]1NC(=O)[C@H]2CCCCN2C(=O)[C@H]([C@H](C)CC)NC(=O)[C@H](Cc2cn(OC)c3ccccc23)NC1=O,Potency,[1],"inconclusive: 18.8 µM [cytotoxic, single point]"
same,Potency,[2],active: 3.75 µM
same,Potency,[3],"inconclusive: 21.1 µM [cytotoxic, single point]"
same,Potency,[4],"inconclusive: 29.8 µM [cytotoxic, single point]"
same,Potency,[5],"inconclusive: 21.1 µM [cytotoxic, single point]"
same,Potency,[6],"inconclusive: 29.8 µM [cytotoxic, single point]"
same,Potency,[7],"inconclusive: 33.2 µM [cytotoxic, single point]"
same,Potency,[8],"inconclusive: 26.4 µM [activator, single point]"
same,Potency,[9],inactive
same,Potency,[10],"inconclusive: 18.7 µM [cytotoxic, single point]"
same,Potency,[11],"inconclusive: 5.24 µM [inhibitor, partial curve]"
same,Potency,[12],"inconclusive: 33.2 µM [cytotoxic, single point]"
same,Potency,[13],"inconclusive: 37.1 µM [inhibitor, single point]"
same,Potency,[14],inactive
same,Potency,[15],"inconclusive: 54.5 µM [activator, single point]"
same,Potency,[16],inactive
same,Potency,[17],inactive
same,Potency,[18],"inconclusive: 2.93 µM [inhibitor, full curve]"
same,Potency,[19],inactive
same,Potency,[20],inactive
CC(C)=CCC[C@]12c3cc4c(cc3CC[C@@]1(C)[C@H](C)CC[C@@H]2O)[nH]c1ccccc14,Potency,[2],"inconclusive: 13.3 µM [cytotoxic, partial curve, poor fit]"
same,Potency,[3],"inconclusive: 18.8 µM [cytotoxic, single point]"
same,Potency,[4],"inconclusive: 14.9 µM [cytotoxic, partial curve]"
same,Potency,[21],"inconclusive: 13.3 µM [cytotoxic, partial curve]"
same,Potency,[5],"inconclusive: 13.3 µM [cytotoxic, partial curve]"
same,Potency,[22],"inconclusive: 37.2 µM [cytotoxic, single point]"
same,Potency,[7],"inconclusive: 18.7 µM [cytotoxic, partial curve]"
same,Potency,[23],"inconclusive: 33.2 µM [cytotoxic, single point]"
same,Potency,[14],"inconclusive: 29.8 µM [inhibitor, single point]"
same,Potency,[24],inactive
same,Potency,[25],"inconclusive: 14.9 µM [cytotoxic, single point]"
same,Potency,[26],"inconclusive: 21.6 µM [inhibitor, partial curve, poor fit]"
same,Potency,[27],"inconclusive: 26.3 µM [cytotoxic, partial curve]"
same,Potency,[20],inactive
